# Test results as given in PubChem BioAssay AID1476 (National Center for Advancing Translational Sciences (NCATS), 2009).
# The campaign covered roughly 200,000 compounds. About 4,500 (2.2%) were called active. Inconclusive results, whose numbers are uncertain, are shown with a selection of clear calls. Calls come from the whole dose curve; as a rule, active = well fitted inhibition curve with a large enough effect; inconclusive = small, poorly fitted or top-dose-only effect, or effect the other way; inactive = flat fitted curve, though single readings scatter. Where the call is inconclusive, the potency comes from a doubtful curve fit.
# Biological target: Cruzipain (Trypanosoma cruzi) (UniProt P25779)
# Chain of UniProt P25779 (P25779 whole entry, looked up): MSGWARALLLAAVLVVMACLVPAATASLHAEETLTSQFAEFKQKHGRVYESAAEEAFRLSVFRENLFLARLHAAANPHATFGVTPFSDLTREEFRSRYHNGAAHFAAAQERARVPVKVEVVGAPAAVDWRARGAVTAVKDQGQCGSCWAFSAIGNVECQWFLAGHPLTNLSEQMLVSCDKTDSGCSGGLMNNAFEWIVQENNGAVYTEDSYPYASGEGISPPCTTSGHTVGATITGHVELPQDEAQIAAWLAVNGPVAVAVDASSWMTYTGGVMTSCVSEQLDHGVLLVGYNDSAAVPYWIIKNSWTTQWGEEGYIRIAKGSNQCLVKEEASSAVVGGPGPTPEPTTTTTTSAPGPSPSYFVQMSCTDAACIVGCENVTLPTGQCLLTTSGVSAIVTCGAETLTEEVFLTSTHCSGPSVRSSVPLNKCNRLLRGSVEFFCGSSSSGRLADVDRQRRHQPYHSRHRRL
# Assay: qHTS Assay for Promiscuous and Specific Inhibitors of Cruzain (without detergent); note: nearly all actives have a fitted effect of over 40% in size;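 for max response, negative = inhibition: plate controls were enzyme without inhibitor for no effect and buffer without enzyme for full effect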
# Conditions: purified cruzain, Z-FR-AMC fluorescence, no detergent
# Procedure, shortened: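 Detergent-free condition (0.00005% Triton X-100) in acetate buffer pH 5.5 with DTT. 1.5 nM enzyme and compound were pre-mixed 15 min, then 2 uM Z-FR-AMC substrate added; reaction progress from fluorescence change between first and third reads (60 s).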
# Potency is the fitted concentration of half-maximal effect; tags give direction and shape of the fitted curve.
Compound,Potency,"max response, negative = inhibition"
CCCCCCOC(=O)c1ccccc1NC(=O)/C=C/C(=O)O,"inconclusive: 31.6 µM [activator, single point]",
Cc1cn2c(=O)c(S(=O)(=O)Nc3ccc(OC(F)(F)F)cc3)c(C)nc2s1,"inconclusive: 25.1 µM [activator, single point]",
Cc1cc(C)n(-c2ccc(Cl)c(C(=O)Nc3ccc(OC(F)(F)F)cc3)n2)n1,"inconclusive: 39.8 µM [inhibitor, single point]",
NC(=O)[C@H](Cc1cc2ccccc2s1)NC(=O)[C@@H]1CC2(CC(c3cccc(NC(=O)[C@@H]4CCC(=O)N4)c3)=NO2)CN1C(=O)/C=C/c1c(F)cccc1Cl (stereo partly drawn),"inconclusive: 12.6 µM [activator, partial curve]",
CC(=O)c1cccc(NS(=O)(=O)c2ccc3[nH]c4c(c3c2)CCCCC4)c1,"inconclusive: 39.8 µM [inhibitor, single point]",
Cc1nn(Cc2c(Cl)cccc2Cl)c(C)c1NC(=O)/C=C/c1cnn(C)c1C,"inconclusive: 31.6 µM [activator, single point]",
CSCC[C@@H](C(=O)O)N(C)C,,inactive: 2.48%
CN(CC(=O)Nc1ccccc1Cl)C(=O)CSc1nc2ccccc2s1,,inactive: 20.6%
COc1ccc(-c2cc(=O)oc3cc(OCC(C)=O)ccc23)cc1,,inactive: -6.53%
O=C1NC(c2ccccc2)=C(c2nc3ccccc3s2)C(c2ccccc2)N1 (stereo not drawn),"inconclusive: 31.6 µM [inhibitor, single point]",
Cc1oc2c(cc(NS(=O)(=O)c3ccc(C(C)C)cc3)c3ccccc32)c1C(=O)OCc1ccccc1,"inconclusive: 3.16 µM [inhibitor, partial curve]",
CN1CCc2cc3c(cc2[C@@H]1[C@@H]1C(=O)Oc2c1ccc1c2OCO1)OCO3,,inactive: -12.3%
O=C(Nc1nc2n(n1)C(c1ccc(F)cc1)C=C(c1ccc(Cl)cc1)N2)c1ccc([N+](=O)[O-])cc1 (stereo not drawn),,inactive: -4.48%
Cc1ccc(S(=O)(=O)N2CCC(=O)N(C(COCc3ccc(Cl)cc3)C(C)C)CC2)cc1 (stereo not drawn),"inconclusive: 31.6 µM [activator, single point]",
Cc1c(NC(=O)Nc2ccc(Cl)c(Cl)c2)sc2nc3n(c(=O)c12)CCC(C)CC3 (stereo not drawn),,inactive: -9.53%
CCC(c1nc2ccccc2c(=O)n1CCN1CCOCC1)N1C(=O)c2ccccc2C1=O (stereo not drawn),"inconclusive: 31.6 µM [activator, single point]",
NC(=O)CC[C@@H]1NC(=O)[C@H](CO)NC(=O)c2cc([N+](=O)[O-])cc(I)c2OCC[C@@H](C(N)=O)NC1=O,"inconclusive: 31.6 µM [activator, single point]",
O=C(NCc1ccco1)c1ccc2c(c1)N(Cc1ccccc1)C(=O)c1ccccc1S2,"inconclusive: 31.6 µM [inhibitor, single point]",
CCC1CCCCN1C(=O)c1c[nH]c2ccc(S(=O)(=O)Nc3cccc(OC)c3)cc2c1=O (stereo not drawn),,inactive: -7.49%
CCCCCS(=O)(=O)CCCCCCCCCCn1c(-c2ccc(O)cc2)c(C)c2cc(O)ccc21,"inconclusive: 31.6 µM [inhibitor, single point]",
COC(=O)c1scc(-c2ccc(C)cc2)c1S(=O)(=O)N1CCN(c2ccc(F)cc2)CC1,,inactive: -29.7%

Compound,Potency,"max response, negative = inhibition"
CC(C)(C)C1CCc2c(sc3nc(SCC(N)=O)nc(N)c23)C1 (stereo not drawn),"inconclusive: 39.8 µM [activator, single point]",
COc1ccc(Cn2ccc3nc(C)c(C(=O)Nc4cc(OC)c(OC)c(OC)c4)cc3c2=O)cc1,"inconclusive: 39.8 µM [activator, single point]",
CCOc1c(OC(C)=O)ccc(/C=C/c2ccc3cccc(OC)c3n2)c1[N+](=O)[O-],"inconclusive: 20 µM [activator, partial curve]",
CCOc1cc(/C=C2\SC(=Nc3ccccc3)N(c3ccccc3)C2=O)ccc1OCC(=O)O,"inconclusive: 6.31 µM [activator, single point]",
CCCCC(=O)N1CCc2cc(OC)c(OC)cc2C1COc1ccc(C(=O)OCC)cc1 (stereo not drawn),"inconclusive: 31.6 µM [activator, single point]",
CC1(C)Cc2c(C#N)c(NCCN3CCOCC3)nc(-c3ccco3)c2CO1,,inactive: 3.41%
COc1ccc(NS(=O)(=O)c2ccc(NC(=S)NC(=O)/C=C/c3ccc(C)cc3)cc2)nn1,"inconclusive: 39.8 µM [inhibitor, single point]",
CCOC(=O)C1=C(CC)Nc2ccccc2N=C1NC(=O)Nc1ccc(Cl)c(Cl)c1,"inconclusive: 39.8 µM [inhibitor, single point]",
COc1cc(S(=O)(=O)N(Cc2ccccn2)Cc2ccccc2Cl)ccc1-n1cnnn1,"inconclusive: 39.8 µM [activator, single point]",
CC(=O)c1ccc2c(c1)C1C(Cl)C(Sc3ccccc3[N+](=O)[O-])CC1C(c1ccccc1)N2 (stereo not drawn),active: 3.98 µM,
Fc1ccc(NC(=S)N/N=C/c2cccc(Br)c2)c(F)c1,active: 25.1 µM,
CC(=O)c1c(C)[nH]c(C(=O)OCc2nnc(-c3ccccc3)o2)c1C,"inconclusive: 31.6 µM [activator, single point]",
CCC(Sc1nncn1C)C(=O)Nc1nnc(-c2ccc(Cl)cc2)s1 (stereo not drawn),"inconclusive: 20 µM [activator, single point]",
CCOC(=O)c1cc(-c2ccc(C)cc2)n(CCCC(=O)Nc2cc(C)ccc2C)c1,,inactive: -2.92%
N#C/C(=C\c1c[nH]c2ccccc12)C(=O)Nc1ncc(Cc2ccc(Cl)cc2Cl)s1,active: 7.94 µM,
Cc1ccc(SCc2cc(=O)[nH]c(Nc3nc(C)c4ccc(C)cc4n3)n2)cc1,"inconclusive: 25.1 µM [activator, partial curve]",
O=C(CSc1nnnn1-c1ccccc1)c1cc2ccccc2oc1=O,"inconclusive: 31.6 µM [inhibitor, single point]",
COc1cccc(CN2C(=O)C3(SCC(=O)N3c3ccc(C)c(Cl)c3)c3ccccc32)c1 (stereo not drawn),"inconclusive: 31.6 µM [inhibitor, single point]",
CC(C)c1ccc(OCC(=O)NC(=S)Nc2ccc3c4c(cccc24)CC3)cc1,active: 25.1 µM,
C=CCn1c(SCC(=O)c2cc(C)n(C(C)COC)c2C)nc2sc(C)c(C)c2c1=O (stereo not drawn),"inconclusive: 31.6 µM [activator, single point]",
CCOC(=O)c1sc(-c2ccc(F)cc2)cc1NC(=O)Nc1ccccc1OC,"inconclusive: 31.6 µM [inhibitor, single point]",

Compound,Potency,"max response, negative = inhibition"
Cc1nc2ccc(NC(=O)c3nn(C(C)C)c(=O)c4ccccc34)cc2s1,"inconclusive: 31.6 µM [activator, single point]",
CCOC(=O)N1CCc2c(sc(NCc3ccc(N(CC)CC)cc3)c2C(=O)Nc2cc(OC)ccc2OC)C1,,inactive: -2.27%
CC12CC[C@@H]3c4ccc(OP(=O)(O)O)cc4CCC3C1CCC2=O (stereo partly drawn),,inactive: 3.53%
CCCc1cc2c(n1Cc1cc(F)cc(F)c1)C(C)C1CN(C(=O)c3ccccc3)C(C)(C(=O)OC)C21 (stereo not drawn),"inconclusive: 39.8 µM [activator, single point]",
Cc1ccc(Cc2cnc(NC(=O)/C(C#N)=C/c3ccc(-c4ccc([N+](=O)[O-])cc4)o3)s2)cc1,active: 2.51 µM,
CCOc1ccccc1NC(=O)c1c2c(nc3ccccc13)C(=O)N(C1CCCCC1)C2,"inconclusive: 39.8 µM [activator, single point]",
CC(C)CNC(=O)C1CCN(Cc2ccc(OCc3ccccc3)cc2)CC1,,inactive: 1.02%
COc1ccc(-c2nc3n(n2)C(c2ccccc2OC)C(C(=O)Nc2cccnc2)=C(C)N3)cc1 (stereo not drawn),"inconclusive: 39.8 µM [activator, single point]",
CC1CCN(C(=O)C2COc3ccccc3C2)CC1 (stereo not drawn),,inactive: -10.9%
O=c1oc2ccccc2cc1-c1nc2ccccc2o1,"inconclusive: 39.8 µM [inhibitor, single point]",
COc1ccc2cc(C3CC(c4ccco4)=NN3S(=O)(=O)c3ccccc3)c(Cl)nc2c1 (stereo not drawn),"inconclusive: 39.8 µM [inhibitor, single point]",
COc1ccc(C2CC(=O)c3c(C)nc(N4CCN(c5ccccc5)CC4)nc3C2)cc1 (stereo not drawn),"inconclusive: 31.6 µM [inhibitor, partial curve, poor fit]",
C=CCOC(=O)C1=C(C)NC(=O)NC1/C=C/c1ccccc1 (stereo not drawn),"inconclusive: 39.8 µM [inhibitor, single point]",
CC(CCC(=O)O)C1CCC2C3C(=O)CC4CC(=O)CC[C@@]4(C)C3CC(=O)[C@]12C (stereo partly drawn),,inactive: 0.16%
O=[N+]([O-])c1cc(-c2nc(-c3ccccc3)no2)ccc1N1CCOCC1,,inactive: 19.6%
c1ccc2[nH]c(CSc3nc4ccccc4s3)nc2c1,active: 15.8 µM,
COc1nc(N/N=C/c2ccc(-c3cccc([N+](=O)[O-])c3)o2)nc(N2CCOCC2)n1,"inconclusive: 39.8 µM [inhibitor, single point]",
CCOc1ccc(NC(=O)N2CCN3CCCCC3C2)cc1 (stereo not drawn),,inactive: 1.52%
Cc1nc(SCC(=O)Nc2ccccc2C(F)(F)F)c(C#N)c(C)c1CC(=O)c1ccc(Br)cc1,,inactive: -11.9%
Cc1onc(-c2ccccc2)c1C(=O)N1CCN(S(=O)(=O)c2ccc3c(c2)OCCO3)CC1,"inconclusive: 39.8 µM [activator, single point]",
Cc1ccc2c(c1)N(CC(=O)N(Cc1ccccn1)Cc1ccco1)C(=O)C(C(C)C)O2 (stereo not drawn),"inconclusive: 39.8 µM [activator, single point]",
